Data: PubChem BioAssay AID1645887 (National Center for Advancing Translational Sciences (NCATS), 2021)
Several values for one entry are separate records, joined by “and”; a condition that tells them apart may be missing. Identical values can stand only once. The campaign covered roughly 16,000 compounds. About 40 (0.2%) were called active. About 1% were inconclusive and are not listed. Calls come from the whole dose curve; as a rule, active = well fitted activation curve with a large enough effect; inconclusive = small, poorly fitted or top-dose-only effect, or another doubt; inactive = no such curve, though single readings can be large or run the other way. Some of the results follow.

Molecular target: Rap guanine nucleotide exchange factor 4 (Homo sapiens) (UniProt Q8WZA2)
Chain of UniProt Q8WZA2 (Q8WZA2 whole entry, looked up): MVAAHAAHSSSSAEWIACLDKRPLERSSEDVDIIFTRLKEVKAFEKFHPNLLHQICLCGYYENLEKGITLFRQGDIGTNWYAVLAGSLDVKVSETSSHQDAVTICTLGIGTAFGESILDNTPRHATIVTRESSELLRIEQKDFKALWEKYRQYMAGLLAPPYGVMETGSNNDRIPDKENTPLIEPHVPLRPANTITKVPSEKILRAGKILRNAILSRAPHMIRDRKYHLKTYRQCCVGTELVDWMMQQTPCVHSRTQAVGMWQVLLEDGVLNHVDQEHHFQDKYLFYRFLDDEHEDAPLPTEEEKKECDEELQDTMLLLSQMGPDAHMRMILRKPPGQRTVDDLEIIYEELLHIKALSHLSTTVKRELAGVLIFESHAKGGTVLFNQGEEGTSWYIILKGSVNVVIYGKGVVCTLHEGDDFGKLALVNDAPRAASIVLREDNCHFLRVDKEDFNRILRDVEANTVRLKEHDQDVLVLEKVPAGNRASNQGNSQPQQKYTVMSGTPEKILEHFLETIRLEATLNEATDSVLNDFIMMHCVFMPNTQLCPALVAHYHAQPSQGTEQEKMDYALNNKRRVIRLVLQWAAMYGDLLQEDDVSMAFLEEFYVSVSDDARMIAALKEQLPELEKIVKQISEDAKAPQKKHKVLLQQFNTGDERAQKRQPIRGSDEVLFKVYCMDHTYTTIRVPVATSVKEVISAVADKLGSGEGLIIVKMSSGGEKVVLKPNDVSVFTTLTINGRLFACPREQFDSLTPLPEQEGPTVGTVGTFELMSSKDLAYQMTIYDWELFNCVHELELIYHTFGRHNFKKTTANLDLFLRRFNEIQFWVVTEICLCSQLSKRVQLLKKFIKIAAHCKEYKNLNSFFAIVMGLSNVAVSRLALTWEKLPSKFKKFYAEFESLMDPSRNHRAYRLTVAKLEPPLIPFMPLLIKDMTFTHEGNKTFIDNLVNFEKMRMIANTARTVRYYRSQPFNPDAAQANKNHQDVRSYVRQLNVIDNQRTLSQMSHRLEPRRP
Experiment: Validation qHTS for agonist of cAMP-regulated guanine nucleotide exchange factor 4 (EPAC2);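 note: exchange makes BODIPY-GDP fluorescence drop when released from Rap1B; series mostly up to about 150 µM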
Conditions: EPAC2 Rap1B BODIPY-GDP exchange, fluorescence; activation: stronger effect = higher value
Method in brief: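 Fluorescent exchange assay: 100 nM EPAC2 with 250 nM RAP1B-BODIPY-GDP and 50 uM GDP; compound added, 5 min at room temperature, then read (ex 480/em 540 nm) every 5 min for 30 min. Normalized to 6.5 mM cAMP agonist control.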
% is set by controls: 0 for no effect and ±100 for the full control effect.

activation, inactive:
C[C@]12CCC3c4ccc(OS(=O)(=O)O)cc4CCC3C1CCC2=O (stereo not given in full) 6.01%
Nc1ncnc2c1[nH]c(=O)n2C1CC(O)C(CO)O1 (stereo not given) -10.3%
COC(=O)CCc1ccc(OCC(O)CNC(C)C)cc1 (stereo not given) -3.23%
CN1CCN(c2nc(-c3ccc(N(C)C)cc3)nc3ccccc23)CC1 -14%
C(=C\c1cccs1)/c1ccccn1 -14.5%
CC(C)c1nc2cccnc2n1C1CCN(C(=O)Cn2cccn2)CC1 -4.44%
CC1CN(CC(=O)NCCc2ccncc2)Cc2ccccc2O1 (stereo not given) 0.974%
CCNc1ncc2nc(-c3ccc(OC)cc3)c(=O)n(CCOC)c2n1 -4.06%
O=C(c1ccccc1F)N(Cc1cc2cc3c(cc2nc1N1CCOCC1)CCC3)CC1CCCO1 (stereo not given) 5.94%
CCCCC/C=C\CC1OC1CCCCCCCC(=O)O (stereo not given) -24.4%
Nc1nc(N)c(-c2ccccc2)s1 -11%
O=c1c(CN2CCOc3ccc(CN4CCC(Oc5cccnc5)CC4)cc3C2)coc2ccccc12 -1.96%
COc1ccccc1C1CN(CC(=O)N[C@H]2CCCCNC2=O)Cc2ccccc2O1 (stereo not given in full) -11.9%
COc1cc(/C=C(\C#N)C(=O)c2ccc(O)c(O)c2)cc(I)c1O 9.9%
CN1CCc2cc(NC(=O)Nc3cccnc3)ccc21 -33%
Cc1cccc2cc(CN(CC3CCCO3)C(=O)C3CC3)c(N(C)C)nc12 (stereo not given) -3.93%
COc1ncc2nc(-c3cn(C)c4ccccc34)c(=O)n(C[C@H]3CCCO3)c2n1 -17.5%
Clc1ccccc1-c1cc(NCc2cccnc2)ncn1 -23.1%
N#Cc1cccc(NC(=O)N2CCC3(CC2)CCN(C(=O)c2cnccn2)CC3)c1 -0.31%
COc1cccc(N(C)C(=S)Oc2ccc3c(c2)CCCC3)n1 -34.2%
CCCCCCCCCC(=O)OCC(CO)OC(=O)CCCCCCCCC (stereo not given) -24.1%
COc1cc(N)c(Cl)cc1C(=O)CCC1CCN(CCNS(C)(=O)=O)CC1 7.52% and -1.52%
CCCNC(C)C(=O)Nc1c(C)csc1C(=O)OC (stereo not given) -12.6%
Cc1c(NC(C)C)c(=O)n(-c2ccccc2)n1C -23.5%
c1cncc(OC2CCN(Cc3ccc4c(c3)CN(Cc3ccc5c(c3)OCCO5)CCO4)CC2)c1 -7.51%
Cn1c(=O)c(-c2ccc(Cl)cc2)nc2cnc(Nc3ccccc3)nc21 -6.53%
O=c1c(-c2ccccc2)nc2cnc(Oc3cccc(Cl)c3)nc2n1C1CC1 4.2%
O=c1ccn([C@H]2C[C@H](O)[C@@H](CO)O2)c(=O)[nH]1 -3.76%
CN(C)CC(C)(O)c1ccc2c(c1)CN(Cc1cnn(-c3ccccc3)c1)CCO2 (stereo not given) -2.18%
Cc1nc2cnc(N3CCOCC3)nc2n(CCc2ccccc2)c1=O -5.3%
N[C@@]1(C(=O)O)CN[C@@H](C(=O)O)C1 -1.1%
CC(C)[C@@H](C)/C=C/[C@@H](C)[C@H]1CC[C@H]2/C(=C/C=C3\C[C@@H](O)CC[C@@H]3C)CCC[C@]12C -66.2%
NS(=O)(=O)Cc1noc2ccccc12 -7.64%
CCC1(C2CCN(C(=O)c3cc4ccccc4o3)CC2)NC(=O)N(CCc2scnc2C)C1=O (stereo not given) -9.8%
Cc1nc2cnc(N3CCOCC3)nc2n(Cc2cccs2)c1=O -11.6%
COc1ccc2[nH]cc(CCNc3nc(-c4cccc(NS(C)(=O)=O)c4)nc4ccccc34)c2c1 -14.5%
CC[C@H](/C=C/[C@@H](C)[C@H]1CC[C@H]2C3CC=C4C[C@@H](O)CC[C@]4(C)C3CC[C@]12C)C(C)C (stereo not given in full) -11.4%
CN(C)CCN(Cc1ccc(Cl)cc1)c1ccccn1 -1.37%
O=C(c1ccc(N2CCC(NCCCn3ncc4ccccc43)CC2)cc1)N1CCc2ccccc2C1 -4.39%
CCCCC[C@H](O)/C=C/[C@@H]1[C@@H](CC(=O)CCCCC(=O)O)[C@@H](O)C[C@H]1O -4.2%
Cc1onc(-c2c(Cl)cccc2Cl)c1C(=O)NC1C(=O)N2C1SC(C)(C)C2C(=O)O (stereo not given) 1.77%
C=C(CO)C1Cc2c(ccc3c2OC2COc4cc(OC)c(OC)cc4C2C3=O)O1 (stereo not given) -7.49%
O=C(/C=C/c1ccc(F)cc1)NCC1Cc2cccc(-c3ncccn3)c2O1 (stereo not given) -13.9%
COc1ccc2c(c1)C(=O)N(CCc1ccc(S(=O)(=O)NC(=O)NC3CCCCC3)cc1)C(=O)C2(C)C -4.49%
O=C(Oc1ccccc1)N1CCC2(CCCN(c3ncccn3)C2)CC1 -11.2%
O=c1c(-c2ccc(F)cc2)nc2cnc(N3CCOCC3)nc2n1-c1ccccc1 -11.9%
CCn1c(-c2ccccc2F)nc2cc(NC(C)=O)cc(C(=O)N3CCC[C@H]3C(=O)OC)c21 -5.06%
CC1CN(CCNC(=O)C2CCCc3c2[nH]c2ccccc32)Cc2ccccc2O1 (stereo not given) -12%
Cc1cn([C@H]2C[C@H](N=[N+]=[N-])[C@@H](CO)O2)c(=O)[nH]c1=O -6.59% and 5.71% and 10%
COC(=O)[C@@H](N)CS -8.69%
COc1ccc([C@@H]2Sc3ccccc3N(CCN(C)C)C(=O)[C@@H]2OC(C)=O)cc1 -3.77% [middle of 4 runs]
O=C(Nc1cccc(F)c1)N1CCC2(CC1)CCN(C(=O)c1ccco1)CC2 -8.83%
COC(=O)C1OC(=O)C2O[C@@]23[C@]2(C)C(OC(C)=O)CC4C(C)(C)C(=O)CC[C@]4(C)C2CC[C@@]13C (stereo not given in full) -5.23%
Cc1ccc(CN2CCOc3ccc(CN4CCC(O)(c5cccnc5)CC4)cc3C2)cc1C -0.247%
C[C@H](NC[C@H](O)CP(=O)(O)Cc1ccccc1)c1ccc(Cl)c(Cl)c1 2.7% and -6.49%
